# From PubChem BioAssay AID1745853 (National Center for Advancing Translational Sciences (NCATS), 2022)
# The other results are listed elsewhere or left out. The main result of the screen is listed elsewhere. These columns were measured beside it and carry no call.
# What was measured:
# Assay in all cases: Primary Screen for Target Class Profiling of Small Molecule Inhibitors of Methyltransferases
# [1] = target: Glycine N-methyltransferase (Homo sapiens) (UniProt Q14749); settings: purified enzyme, MTase-Glo SAH luminescence; measured here: GNMT inhibition; at 40 µM; stronger effect = lower value
# Outline: (§1)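 Each enzyme was reacted with SAM and its substrate, with compounds tested once at 40 uM; SAH formed was read by MTase-Glo luminescence.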
# [2] = target: Guanidinoacetate N-methyltransferase (Homo sapiens) (UniProt Q14353); settings: purified enzyme, MTase-Glo SAH luminescence; measured here: GAMT inhibition; at 40 µM; stronger effect = lower value
# Outline: as §1
# [3] = target: Histamine N-methyltransferase (Homo sapiens) (UniProt P50135); settings: purified enzyme, MTase-Glo SAH luminescence; measured here: HNMT inhibition; at 40 µM; stronger effect = lower value
# Outline: as §1
# [4] = target: Nicotinamide N-methyltransferase (Homo sapiens) (UniProt P40261); settings: purified enzyme, MTase-Glo SAH luminescence; measured here: NNMT inhibition; at 40 µM; stronger effect = lower value
# Outline: as §1
# [5] = target: Phenylethanolamine N-methyltransferase (Homo sapiens) (UniProt P11086); settings: purified enzyme, MTase-Glo SAH luminescence; measured here: PNMT inhibition; at 40 µM; stronger effect = lower value
# Outline: as §1
# % is set by controls: 0 for no effect and ±100 for the full control effect.
SMILES,"activity change, negative = inhibition [1] [%]","activity change, negative = inhibition [2] [%]","activity change, negative = inhibition [3] [%]","activity change, negative = inhibition [4] [%]","activity change, negative = inhibition [5] [%]"
C[C@H]1[C@H](/C=C/c2ccc(-c3ccccc3C#N)cn2)[C@@H]2[C@@H](C)OC(=O)[C@@H]2C[C@@H]1C,-6.9,-6.99,10.5,-41.9,-1.7
Cc1ccc(C(=O)Cn2nc3n(CCC(C)C)c(=O)c4ccc(C(=O)NCC(C)C)cc4n3c2=O)cc1,3.72,1.65,2.24,-0.887,4.61
CCCn1c(=O)c2ccc(Cl)cc2n2c(SCC(=O)Nc3cccc(Cl)c3)nnc12,-2.69,-12.2,11.9,-4.91,-4.57
CCCn1c(=O)c2ccc(C(=O)NC3CCCCC3)cc2n2c(=O)n(Cc3ccc(F)cc3)nc12,2.44,0,5.22,6.27,3.3
CNC(=O)c1ccc(N2C(=S)N(c3cnc(C#N)c(C(F)(F)F)c3)C(=O)C23CCC3)cc1F,0.014,-8.48,-3.26,-19.3,-12.4
CC(C)OCCCn1c(=O)c2cc(Cl)ccc2n2c(SCc3cccc(F)c3)nnc12,-10.7,-0.621,-0.459,-15.3,-5.07
CCC(C)NC(=O)c1ccc2c(=O)n(C(C)C)c3nn(Cc4ccc(F)cc4Cl)c(=O)n3c2c1 (stereo not given),-0.516,4.73,0.352,0.621,0.142
O=C(CCc1nnc2n(Cc3ccc(Cl)cc3)c(=O)c3ccccc3n12)N1CCN(C2CCCCC2)CC1,-7,1.17,-10.7,0.945,-0.349
COc1cccc(CN2CCC3(CC2)C(C(=O)O)CC(=O)N3C)c1OC (stereo not given),-6.46,-12.2,-4.38,-16.2,-18.4
Cc1ccc(C)c(S(=O)(=O)c2nnn3c2nc(NCCC(C)C)c2ccccc23)c1,-1.09,-1.42,-2.53,-6.66,-5.37
Cn1c(=O)c2ccc(C(=O)NC3CCCCC3)cc2n2c(SCc3ccc(F)cc3)nnc12,1.82,1.83,1.99,1.79,5.2
CCOc1nc(NC(=O)Cc2cc(OC)ccc2OC)cc(N)c1C#N,0.525,-4.28,8.36,-35.5,2.45
CCOC(=O)[C@@H]1[C@H]2c3ccccc3N(CCOC)C(=O)[C@H]2N(C(=O)c2ccccc2)[C@@H]1c1ccccc1,-2.15,-6.14,-4.15,6.58,0.346
CCS(=O)(=O)N1C[C@@H](C(=O)NCc2ccc(C)o2)[C@H](c2ccncc2)C1,-8.28,-10.2,-4.01,-14.1,-9.21
CCc1ccc(N2C(=O)c3nc4ccccc4n3CC2(C)C(=O)NC2CCCC2)cc1 (stereo not given),-3.57,4.06,-2.21,-1.06,-3.74
CCc1cccc(NC(=O)Cn2nc3n(CC(C)C)c(=O)c4ccc(C(=O)NC(C)CC)cc4n3c2=O)c1 (stereo not given),-0.926,0,3.33,-0.417,4.7
